According to PubChem BioAssay AID504832 (National Center for Advancing Translational Sciences (NCATS), 2011):
Screen size: about 310,000 compounds; about 18,000 (5.8%) were called active. The shares of active, inactive and inconclusive entries below differ from those in the screen. The call rests on the fitted dose curve; in most records, active means well fitted inhibition curve with a large enough effect; inconclusive means small, poorly fitted or top-dose-only effect, or another doubt; inactive means no such curve, though single readings can be large or run the other way. No potency is given beside an inconclusive call; the fits are too rough.

Assay: Primary qHTS for delayed death inhibitors of the malarial parasite plastid, 48 hour incubation
Conditions: P. falciparum luciferase growth in erythrocytes; series mostly up to 28.7 µM; activity change, negative = inhibition: at the top concentration
Procedure, shortened: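 Firefly luciferase activity from engineered P. falciparum reports growth; inhibitors lower the luminescent signal. Cultures contained 2% hematocrit erythrocytes at 0.1% final parasitemia.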
On the % scale 0 is the no-effect control and ±100 the full control effect; potency means the concentration at half of the fitted maximal effect; tags describe the fitted curve by direction and shape.

Compound	Potency	activity change, negative = inhibition
Cn1c(SCc2c(Cl)cccc2Cl)nnc1-c1cccs1	inconclusive [inhibitor, partial curve]	–
Oc1ccc(Cl)cc1C1=NNC(c2ccc(Cl)cc2)C1 (stereo unspecified)	inconclusive [inhibitor, single point]	–
COc1cccc(NC(=O)NCc2ccccc2F)c1	–	inactive: 147%
CCOc1cc(C(=S)N2CCCC2)ccc1OCc1ccccc1	–	inactive: 0.246%
O=C(NC(NC(=S)Nc1c(Cl)cc(Cl)cc1Cl)C(Cl)(Cl)Cl)OCc1ccccc1 (stereo unspecified)	inconclusive [inhibitor, single point]	–
Oc1ccccc1C1=Nc2nc3ccccc3n2C(c2ccccc2)C1 (stereo unspecified)	inconclusive [inhibitor, single point]	–
COc1ccc(OC)c(-n2c(=S)[nH]c3cc(C(=O)N(C)Cc4ccccc4)ccc3c2=O)c1	inconclusive [inhibitor, full curve, poor fit]	–
COc1ccc(CCNC(=O)c2ccc(NC(=O)CC3SC(N4CCCC4)=NC3=O)cc2)cc1 (stereo unspecified)	inconclusive [inhibitor, partial curve, poor fit]	–
COc1ccc(Br)cc1CNC(=O)CCN1C(=O)COc2ccccc21	–	inactive: 1.11%
CC(NC(=S)Nc1ccc(OC(F)F)cc1)c1ccc(F)cc1 (stereo unspecified)	inconclusive [inhibitor, partial curve]	–
O=C(CC(=O)c1cc(Cl)ccc1O)c1ccccc1	inconclusive [inhibitor, single point]	–
O=[N+]([O-])c1ccc(CSc2ccc(S(=O)(=O)N3CCOCC3)cn2)cc1	inconclusive [inhibitor, single point]	–
O=S(=O)(c1cccs1)N1CN(Cc2ccc(F)cc2)c2nc3ccccc3nc21	inconclusive [inhibitor, full curve, poor fit]	–
CCn1c(SCC(=O)NC2CCCC2)nnc1C(C)NC(=O)c1ccccc1F (stereo unspecified)	–	inactive: 7.36%
Cc1ccc(C(C(=O)NC2CCCCC2)N(CC2CCCO2)C(=O)CNC(=O)c2cccs2)cc1 (stereo unspecified)	inconclusive [inhibitor, single point]	–
CSCCC(NC(=O)COc1ccccc1)C(=O)N1CCN(c2ccccc2)CC1 (stereo unspecified)	inconclusive [inhibitor, single point]	–
CCCCCc1ccc(OCCOCCn2c[n+](C)c3ccccc32)c(CCCCC)c1	active: 2.94 µM	–
C=CCSc1nc2c(c(=N)n1CC=C)C1CCCC1S2 (stereo unspecified)	inconclusive [inhibitor, single point]	–
CCc1ccc(C2=NN(CCC(=O)NC(C)c3ccc4c(c3)OCCO4)C(=O)CC2)cc1 (stereo unspecified)	inconclusive [inhibitor, partial curve, poor fit]	–
Cc1cc(/C=C2/SC(=O)NC2=O)c(C)n1-c1ccc(N2CCOCC2)cc1	–	inactive: -28.8%
COc1cc(C(=O)Nc2nc3ccc(S(C)(=O)=O)cc3s2)cc(OC)c1C	inconclusive [inhibitor, partial curve]	–
COc1ccc(N2CCN(C(=O)c3cc(-c4cc(OC)ccc4OC)nc4ccccc34)CC2)cc1	inconclusive [inhibitor, partial curve, poor fit]	–

Compound	Potency	activity change, negative = inhibition
COc1ccc(/C=C/C(=O)Oc2ccc(/C=N/NC(=O)c3ccncc3)cc2)cc1	inconclusive [inhibitor, single point]	–
Cc1ccc2[nH]c(=O)c(CN(Cc3cccnc3)Cc3nnnn3CC3CCCO3)cc2c1 (stereo unspecified)	inconclusive [inhibitor, full curve]	–
CCCCC(=O)NC(c1ccccc1Cl)c1c(O)ccc2ccccc12 (stereo unspecified)	active: 10.4 µM	–
O=C(NC(=S)Nc1ccc2[nH]ncc2c1)c1ccccc1	–	inactive: 73.9%
Cn1c(SCC(=O)N2CCCc3ccccc32)nnc1-c1ccccc1	inconclusive [inhibitor, partial curve, poor fit]	–
O=C(Nc1ccccn1)C12CC3CC(CC(C3)C1)C2	active: 13.1 µM	–
CCOP(=O)(NC(c1ccccc1)c1nc2ccccc2[nH]c1=O)OCC (stereo unspecified)	inconclusive [inhibitor, partial curve, poor fit]	–
COc1ccc(CN(C)C(=O)c2ccc(OCC(=O)Nc3cccc(C(F)(F)F)c3)c(OC)c2)c(OC)c1	inconclusive [inhibitor, single point]	–
O=C(O)/C=C/c1cn(-c2ccccc2)nc1-c1cc2ccccc2o1	inconclusive [inhibitor, partial curve]	–
Cc1cc(Nc2ccc(Cl)cc2)nc(-c2ccccc2O)n1	inconclusive [inhibitor, single point]	–
O=C(c1cccc(C(F)(F)F)c1)C1CCCN(Cc2cccn2-c2ncccn2)C1 (stereo unspecified)	inconclusive [inhibitor, single point]	–
Cc1ccc(NC(=O)CCS(=O)(=O)c2cccc3nonc23)cc1Cl	–	inactive: -11%
CC(=O)c1cccc(NC(=O)C(CC(C)C)NC(=O)C2CCCCC2)c1 (stereo unspecified)	active: 5.86 µM	–
O=C(Nc1cc(S(=O)(=O)N2CCOCC2)ccc1N1CCCCC1)c1ccc(Cl)cc1	active: 13.1 µM	–
Cc1cc(C)c(OCC(=O)Nc2ccccc2N2CCCCC2)c(C)c1	inconclusive [inhibitor, single point]	–
COc1ccc([N+](=O)[O-])cc1NCC(=O)c1ccc(C)cc1	–	inactive: -14.1%
CCN(CC)CCCn1c(C)cc2c(c1=O)C(c1cccc(Cl)c1)C(C#N)=C(N)O2 (stereo unspecified)	inconclusive [inhibitor, partial curve, poor fit]	–
Cc1cc([N+](=O)[O-])ccc1NC(=O)CN1C2CCC1CC(NC(=O)NC13CC4CC(CC(C4)C1)C3)C2 (stereo unspecified)	active: 10.4 µM	–
Cc1cc(-c2csc(NC(=O)C3=COCCO3)n2)c(C)n1C	inconclusive [inhibitor, full curve]	–
O=C(Nc1cc(S(=O)(=O)N2CCOCC2)ccc1OCC(F)(F)F)C1=COCCO1	inconclusive [inhibitor, partial curve, poor fit]	–
CN(Cc1c(C(=O)N2CCc3ccccc3C2)nc2ccc(Cl)cn12)C(C1CC1)C1CC1	inconclusive [inhibitor, partial curve]	–
O=C(/C=C\c1ccc2c(c1)OCO2)Nc1nnc(SCC(=O)OCc2ccccc2)s1	–	inactive: -16%

Compound	Potency	activity change, negative = inhibition
OCC1(Cc2cccc(Cl)c2)CCCN(Cc2cnn(-c3ccccc3)c2)C1 (stereo unspecified)	active: 8.28 µM	–
COc1ccc(C)cc1NC(=O)c1cccc(C(=O)Nc2cc(C)ccc2OC)c1	inconclusive [inhibitor, partial curve, poor fit]	–
COc1cccc(N2CCN(C3CCCC(C)C3)CC2)c1 (stereo unspecified)	–	inactive: 17.1%
CCN(CC)CCNC(=O)c1ccc2c(c1)NC(=O)c1ccccc1S2	inconclusive [inhibitor, partial curve]	–
Cc1cc(C)cc(OCc2nnc(SCC(=O)N3CCN(c4ccccc4)CC3)o2)c1	inconclusive [inhibitor, partial curve, poor fit]	–
N#C/C(C(N)=O)=c1/ccc2c(c1)N1C3=C(CCCC3)CC3CCCCC31N=2 (stereo unspecified)	inconclusive [inhibitor, partial curve, poor fit]	–
CCOC(=O)C1=C(Cn2cnc3ccccc32)NC(=O)NC1c1cc(C)ccc1C (stereo unspecified)	inconclusive [inhibitor, partial curve, poor fit]	–
Cc1nn(-c2ccccc2)c2c1C(c1cccnc1)N1C=C(S(=O)(=O)N3CCCCC3)C=CC1=N2 (stereo unspecified)	active: 1.85 µM	–
Cc1c(CC(=O)NCCCC(=O)O)c(=O)oc2cc3oc4c(c3cc12)CCCC4	–	inactive: 2.17%
CC12CN3CC(C)(CN(C1)C3c1ccccc1F)C2 (stereo unspecified)	inconclusive [inhibitor, single point]	–
CCN(CC(=O)Nc1cccc(F)c1)Cc1nc2ccccc2c(=O)[nH]1	inconclusive [inhibitor, partial curve, poor fit]	–
CSc1ncccc1C(=O)NCCc1ccc(S(N)(=O)=O)cc1	–	inactive: 19.6%
COC(=O)c1ccc(NC(=S)NC2CCc3ccccc32)cc1 (stereo unspecified)	inconclusive [inhibitor, partial curve]	–
C[C@]1(C(=O)NCc2cc(F)cc(C(F)(F)F)c2)C=C[C@@H](Cc2ccccc2)N1C(=O)c1ccccc1	inconclusive [inhibitor, single point]	–
O=C1N=C(N2CCCC2C(=O)O)S/C1=C\c1ccco1 (stereo unspecified)	inconclusive [inhibitor, single point]	–
N=c1c(S(=O)(=O)c2ccc(Cl)cc2)cc2c(=O)n3ccccc3nc2n1Cc1cccnc1	inconclusive [inhibitor, single point]	–
C/C(=N\NC(=O)c1ccc2c(c1)OCO2)c1ccco1	–	inactive: 93.1%
CCOc1ccc(NC(=O)CN(C)C(=O)CCSc2ccc(F)cc2)cc1OCC	inconclusive [inhibitor, single point]	–
O=C(NCCc1c[nH]c2ccccc12)C(=O)NCC(c1cccnc1)N1CCN(c2ccccc2)CC1 (stereo unspecified)	active: 13.1 µM	–
CC1CC(C)CN(S(=O)(=O)CC23CCC(CC2=O)C3(C)C)C1 (stereo unspecified)	–	inactive: -25.9%
CC(C)(C)NC(=S)N1CCC(C(=O)c2ccc(F)cc2)CC1	inconclusive [inhibitor, partial curve, poor fit]	–
COc1cc(CN2CCN(c3cccc(C)c3C)CC2)cc([N+](=O)[O-])c1O	inconclusive [inhibitor, single point]	–
